Results on 81 compounds are retold here after ChEMBL document CHEMBL1201862, “PubChem BioAssay data set” (2004).

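Following 48 hours of exposure in 96-well plates, responses at five concentrations were used to interpolate endpoints linearly. At the GI50, growth is halved.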 Calls of active or inactive are those of the source. Cut-off read from the data, not from the text of the source: active = GI50 up to about 1.1 µM and inactive = higher.

The subject of this test is NCI-H322M. Briefly: NCI tumour cell line growth inhibition, 48 h.
Regarding `CCOc1cc2c(cc1O)/C(=N\O)C[C@@H]1[C@@H]2CC[C@]2(C)[C@@H](O)CC[C@@H]12`, the GI50 was active: < 0.0261 µM.
Under `O=C(C=P(c1ccccc1)(c1ccccc1)c1ccccc1)c1ccccc1-c1ccccc1C(=O)C=P(c1ccccc1)(c1ccccc1)c1ccccc1` stands active: 0.0296 µM; under `CNS(=O)(=O)c1ccccc1C(=N)c1ccccc1`, inactive: > 100 µM; under `OCC1OC(c2nc(C3=NCCCN3)cs2)C(O)C1O` (stereo unspecified), inactive: > 100 µM.
The value for `Nc1nc(N)c(-c2ccccc2)c(C(=O)Nc2ccc(Cl)c(Cl)c2)n1` was inactive: > 100 µM; that for `CCOc1ccc(NCC2CC/C(=C\c3ccccc3OC)C2=O)cc1` (stereo unspecified) was inactive: 15.8 µM; that for `COc1cccc2c1C(=O)C(=O)c1c-2oc(=O)c2cc(C)cc(OC)c12` was inactive: 69.2 µM.
Under `CC(C)c1cccc(C(C)C)c1/N=C(/N)C#N` stands inactive: > 100 µM; under `O=c1n(Cc2ccccc2)c(=O)n2c(=O)n(Cc3ccccc3)c(=O)n12`, inactive: > 100 µM; under `Cc1ccc2c(c1)[nH]c(=S)n2C=C(C(N)=O)C(N)=O`, inactive: > 100 µM.
In the case of `CCN(CC)CCCn1c(=O)c2ccccc2n2c3c(=O)n(C)c(=O)n(C)c3nc12`, the GI50 is inactive: 6.44 µM.
Under `CC1(C)OCC(C2CCC3(C)C4=CCC5C(C)(C)C(O)CCC5(C)C4CCC23C)CC(O)C1O` (stereo unspecified) stands inactive: 16.9 µM; under `Cc1cc(C)c2c(c1)C/C(=C\c1ccccc1C(=O)O)C2=O`, inactive: > 10 µM; under `COc1ccc(CCc2ccccc2CC(=O)O)cc1`, inactive: > 100 µM.
Under `Cc1c(C#N)c2nnn(-c3ccccc3)c(=O)n2c1-c1ccccc1` stands inactive: 3.35 µM; under `O=C1NC(=S)N/C1=C\c1ccc(Cl)cc1`, inactive: > 100 µM; under `O=C1CC(Br)c2c(Cl)sc(Cl)c21` (stereo unspecified), inactive: 15.3 µM.
The value for `CCOc1c(OC)cc(-c2nc3n(n2)C(=O)C(CC)S3)cc1OC` (stereo unspecified) was inactive: > 10 µM; that for `O=C(c1ccccc1)C1N=NN(Cc2ccccc2[N+](=O)[O-])C1C(=O)c1ccccc1` (stereo unspecified) was inactive: > 100 µM; that for `COc1ccc(/N=N/c2c(N)nn(C)c2N)cc1` was inactive: > 100 µM.
Consider `C[C@]12CC[C@H](O)C=C1CC[C@@H]1[C@@H]2CC[C@]2(C)C(=N/O)/C(=C/c3ccncc3)C[C@@H]12`, for which the GI50 is inactive: 13.6 µM.
The value for `O=c1[nH]c(N/N=C\C(O)C(O)C(O)CO)nc2ccccc12` (stereo unspecified) was inactive: > 100 µM; that for `CC1(Cc2cc3c(cc2C2(c4ccc([N+](=O)[O-])cc4)OCCO2)OCO3)OCCO1` was inactive: > 100 µM.
Under `CC(C)CCCC(C)[C@H]1CC[C@H]2NCCCC[C@]12C` (stereo partly specified) stands inactive: 3.87 µM; under `NS(=O)(=O)c1ccc(Nc2c3ccccc3nc3c(C(=O)NCCO)cccc23)cc1`, active: 0.193 µM; under `Cc1cc(S(=O)(=O)Nc2nc(N)nc(N(C)C)n2)c(SC(C(=O)O)c2ccccc2)cc1Cl` (stereo unspecified), inactive: > 10 µM.
In the case of `CC(C)(C)c1cc(Oc2ccc(C#N)c(C#N)c2)cc(C(C)(C)C)c1`, the GI50 was inactive: > 100 µM.
The value for `CN(C(=O)Cc1ccccc1)n1cn[n+](CC(=O)OC(C)(C)C)c1` was inactive: > 10 µM; that for `C/C(=N\c1cc(Cl)cc(Cl)c1)c1ccncc1` was inactive: 1.89 µM; that for `CCCCCCCCCOCC(COP(=O)([O-])OCC[N+](C)(C)C)OC` (stereo unspecified) was inactive: > 100 µM.
The value for `NCCN(CCN(C(=O)Nc1ccccc1)c1ccccc1)C(=O)Nc1ccccc1` was inactive: 24.8 µM; that for `COc1ccc(/C=C2\CCC(C)C3=C(c4ccc(OC)c(OC)c4)C(C#N)=C(N)OC32)cc1OC` (stereo unspecified) was inactive: 4.35 µM.
`O=C(O)C1=C(Cl)c2ccccc2S1(=O)=O`: the GI50 was inactive: > 100 µM.
Under `Cc1cccc(-n2c(C)nc3ccc(NC4OC(CO)C(O)C(O)C4O)cc3c2=O)c1` (stereo unspecified) stands inactive: > 100 µM; under `Cc1nc(-c2nc(C)c(C(=O)/C=C/c3ccc([N+](=O)[O-])cc3)s2)sc1C(=O)/C=C/c1ccc([N+](=O)[O-])cc1`, inactive: > 100 µM; under `CN1COCc2cc3cc4c(cc3nc21)OCCO4`, inactive: > 100 µM.
Under `CC(=O)COC(=O)CC(C)=O` stands inactive: > 100 µM.
Under `CCOC(OC(C)=O)[C@@H]1C=C[C@H](C)N(c2ccc([N+](=O)[O-])cc2)O1` (stereo partly specified) stands inactive: 17.5 µM; under `CC[C@@]1(OC(=O)CN(C)C)C(=O)OCc2c1cc1n(c2=O)Cc2cc3ccccc3nc2-1`, active: 0.252 µM; under `COc1ccc(C2C3=C(N=C4SC(C(C)=O)=C(C)N42)c2ccccc2CC3)cc1` (stereo unspecified), inactive: > 100 µM.
Consider `COC(=O)[C@H](Cc1c[nH]c2ccccc12)NC(=O)c1ccc(CNC(=O)/C=C/c2cccc(Oc3ccccc3)c2)cc1`, for which the GI50 was inactive: > 100 µM.
The value for `O=C(CCc1cccc(O)c1)NCCc1cccc(OCc2ccccc2)c1` was inactive: 23.1 µM; that for `CNC(=O)c1cc2nc3ccccc3c(=O)n2c2ccccc12` was inactive: > 10 µM.
The value for `O=C(OC1C#CCSCC#C/C=C\1)c1ccc2c(c1)C(=O)c1ccccc1C2=O` (stereo unspecified) was inactive: > 100 µM.
Under `COC(=O)C1=C(C)N(NC(N)=O)C2(N)N(NC(N)=O)C(C)=C(C(=O)OC)C12C#N` (stereo unspecified) stands inactive: > 100 µM.
Take `CSc1nc2c(nc(N)n2C2OCC(O)C(O)C2O)c(=O)n1C` (stereo unspecified): the GI50 was inactive: > 100 µM.
On to `CCN(CC)CCSc1c2ccccc2nc2c(OC)ccc(OC)c12`, for which the GI50 is inactive: 22.1 µM.
Under `[O-][n+]1cc(SCc2ccccc2)ncc1SCc1ccccc1` stands inactive: > 10 µM.
The value for `COc1cc2c[n+]3c4c(c2c(OC)c1OC)CCCC4CC3` (stereo unspecified) was inactive: > 100 µM; that for `COc1ccc(-c2nc(-c3cc4c(ccc5ccccc54)oc3=O)cs2)cc1` was inactive: 70.6 µM; that for `NCCCNC(=O)c1csc(NC(=O)c2csc(NC(=O)CCCN)n2)n1` was inactive: > 100 µM.
The value for `COc1ccc(N2C(=O)C3c4[nH]c5ccccc5c4C4CC(C)(C)CC(C)(C)C4C3C2=O)cc1` (stereo unspecified) was inactive: 18.5 µM.
In the case of `[O-][n+]1c2cccc(O)c2[n+]([O-])c2cccc(O)c21`, the GI50 was inactive: > 100 µM.
Under `N=C(N)NS(=O)(=O)c1ccc(Nc2c3ccccc3nc3c(C(=O)N4CCN(CCO)CC4)cccc23)cc1` stands inactive: > 100 µM; under `COc1cc(/C=C2\CCC(C)c3c2nc(N)c(C#N)c3-c2cc(OC)c(OC)c(OC)c2)cc(OC)c1OC` (stereo unspecified), inactive: > 100 µM.
For the compound `Cc1ccc(S(=O)(=O)OC2CN3CCC2CC3)cc1` (stereo unspecified), the GI50 was inactive: > 100 µM.
Under `O=C(c1ccco1)C1CC(c2ccc3ccccc3c2O)=NN1` (stereo unspecified) stands inactive: > 100 µM; under `O=C(c1ccccc1)N(C(=O)c1ccccc1)c1nc(SCc2ccccc2)ns1`, inactive: 29.4 µM.
The value for `C/C=C/[C@H]1O[C@@](O)([C@@H](C)[C@H](O)[C@H](C)[C@H]2OC(=O)/C(OC)=C/C(C)=C/[C@@H](C)[C@@H](O)[C@@H](CC)[C@@H](O)[C@H](C)C/C(C)=C/C=C/[C@@H]2OC)C[C@H](OC2CC(O)C(OC(N)=O)C(C)O2)[C@@H]1C` (stereo partly specified) was active: 0.94 µM.
The value for `CCCCOP1(=O)CC(C)=C(Cl)C(C)(OC)C1` (stereo unspecified) was inactive: > 100 µM; that for `CN(C)CCCOc1nc2c(c(=O)n(C)c(=O)n2C)n1C.SC1=NC=NC2=NC=NC12` was inactive: 7.01 µM.
For the compound `CN(C)c1ccc(C(C#N)NNC(=O)Cc2ccccc2)cc1` (stereo unspecified), the GI50 is inactive: > 100 µM.
The value for `CCC1CCN=C(Cn2cc(C)c(=O)[nH]c2=O)N1` (stereo unspecified) was inactive: > 100 µM; that for `CC(C)(C)OC(=O)NCC(CNC(=O)OC(C)(C)C)c1nc(C(N)=O)cs1` was inactive: > 100 µM; that for `CSc1nc(-c2ccccc2)nc(C(C#N)C#N)n1` was inactive: > 100 µM.
Under `CCc1nnc(CC)n1NCCCC(=O)O` stands inactive: > 100 µM; under `O=C1C=C(Nc2ccc(Br)cc2)c2ccccc2/C1=N/O`, inactive: 1.63 µM.
For `OCC(O)C(O)C(O)c1nn(-c2ccc(Cl)cc2)c2nc3cc(Cl)c(Cl)cc3nc12` (stereo unspecified), the GI50 was inactive: > 100 µM.
Under `CC1(C)C(=O)c2ccccc2OC1N1CCN(C2Oc3ccccc3C(=O)C2(C)C)CC1` (stereo unspecified) stands inactive: 67 µM; under `C=CCC1(O)CC(n2cc(C)c(=O)[nH]c2=O)OC1CO[Si](C)(C)C(C)(C)C` (stereo unspecified), inactive: 74.3 µM.
Under `CS(=O)(=O)CCC(N)P(=O)(O)O` (stereo unspecified) stands inactive: > 100 µM; under `CC(c1ccccc1)n1cncc1C(=O)NN1CCN(C)CC1` (stereo unspecified), inactive: > 10 µM.
With `NC(Cc1ccc(S(=O)(=O)O)cc1)C(=O)NC(Cc1ccc(S(=O)(=O)O)cc1)C(=O)O` (stereo unspecified), the GI50 is inactive: > 100 µM.
The value for `C[C@@H](CC(O)C(O)C(C)(C)O)C1CCC23CC12CCC1[C@@]2(C)CCC(=O)C(C)(C)C2CC(OC2OC(CO)C(O)C(O)C2O)[C@]13C` (stereo partly specified) was inactive: > 10 µM.
For `CCC1=NC(CO)[C@H](c2ccccc2)O1` (stereo partly specified), the GI50 was inactive: > 100 µM.
The value for `CC1CCC2(O)C3(C)CC4(O)OC2(C1O)C1(O)C3(O)C(OC(=O)c2ccc[nH]2)C(O)(C(C)C)C41C` (stereo unspecified) was inactive: > 100 µM.
The value for `C=CC(C)(C)NC(C(=O)N1CCC[C@H]1c1nc(-c2nc(C(=O)OCC=C(C)C)c(C)o2)c(C)o1)C(C)C` (stereo partly specified) was inactive: > 81.5 µM; that for `COc1cc2c(c(OC)c1OC)-c1ccc(SC)c(=O)cc1[C@@H](NCc1cccc([N+](=O)[O-])c1)CC2` was active: < 0.01 µM.
Under `CC(=O)c1cc2c(s1)C(=O)c1ccsc1C2=O` stands inactive: 1.92 µM; under `CCOC(=O)C(=O)Nc1ccc([N+](=O)[O-])cc1C#N`, inactive: > 100 µM; under `CCCCCCN(CCCCCC)C(=O)Cc1c2n(c3ccccc13)Cc1ccccc1-2`, inactive: > 100 µM.
